# Data taken from ChEMBL document CHEMBL4888484, “Replenishing the malaria drug discovery pipeline: Screening and hit evaluation of the MMV Hit Generation Library 1 (HGL1) against asexual blood stage Plasmodium falciparum ,using a nano luciferase reporter read-out” (2022).
# Out of some 150,000 compounds screened, about 540 (0.36%) showed an effect of 50% or more. Some of the results follow.
# System: Plasmodium falciparum
# Test: Primary screen in NF54 nanoGlo assay, in single point, at 2uM, 72h; a lower Z score goes with more inhibition
# Format: functional, Erythrocyte
# Settings: timepoint 72 hour
SMILES,% Inhibition,Z score
C[C@H](Oc1ccc(S(C)(=O)=O)cc1)c1nc2ccccc2o1,-2%,0.26
COc1ccc(C(=O)NC(C)(C)CC(C)(C)C)cc1,-9%,1.78
O=C(O)CC1(NCc2cc3c(cc2Br)OCO3)CCOCC1,2%,-0.31
COCCN(CC(=O)N(Cc1cccn1Cc1ccc(Br)cc1)C1CCCCC1)C(=O)c1ccc(OC)cc1OC,-10%,1.14
CC[C@H](NC(=O)CNS(C)(=O)=O)c1nccs1,-14%,2
Cc1nn(C)cc1-c1nn(S(=O)(=O)c2ccccc2)c(-c2cn(C)nc2C)c1Cl,30%,-3.37
CC1=NN(c2ccc(Cl)cc2)C(=O)C1C(c1ccccc1Cl)c1c(C)nn(-c2ccc(Cl)cc2)c1O (centres undefined),-11%,1.71
Cn1c(C(F)(F)F)nn(CC(=O)NCc2ccco2)c1=O,12%,-1.37
O=C(Nc1ccc(OCc2ccccc2)cc1)c1ccc2ccccc2c1,-3%,0.41
Cc1cnn(-c2cc(C(=O)O)cc(S(=O)(=O)N3CCCCCC3)c2)c1,16%,-2.1
O=C1CNC(=O)N1[C@H]1CCN(S(=O)(=O)Cc2ccccc2F)C1,-13%,2.38
COc1cc(-c2ncc(C(=O)N3CCOCC3)c(N3CCN(c4ccccc4F)CC3)n2)cc(OC)c1OC,-27%,2.37
Cn1cc(S(=O)(=O)NCc2nccnc2-c2cccs2)cn1,-8%,1.57
Cc1cc(Oc2cc(N3CCCC3)ncn2)ccc1Cl,-6%,0.96
COc1ccc(C2(NCc3cc(OC)c(OCC(N)=O)c(OC)c3)CCCCCC2)cc1,-4%,0.78
CC(C)[C@H](NC(=O)N1CCCCCCC1)c1cccnc1,-11%,1.13
CCN(Cc1nnc(-c2ccccc2)o1)C1CCCCC1,-4%,0.48
O=S(=O)(Nc1nc2ccccc2nc1Nc1ccc2c(c1)OCO2)c1ccc(Br)cc1,-4%,0.48
CCCNC(=O)c1ccc2c(c1)nc1n2CC[C@H](C)C1,-24%,3.33
Cc1ccc(F)cc1CN1CCC2(CC1)C[C@@H]2C(=O)O,-6%,0.56
CCN(Cc1ccc2[nH]ccc2c1)Cc1nc(C)no1,-10%,1.23

SMILES,% Inhibition,Z score
CC(C)(C)n1nnc(CNc2cnccc2-n2cccn2)n1,-2%,0.29
CCc1nc(N2CCC[C@H](CNC(=O)c3ccoc3)C2)no1,-1%,0.26
COc1ccc(CN(CCC(C)C)C[C@H](O)COCc2ccccc2)cc1,6%,-0.87
CNC(=O)[C@H]1CC(=O)N(c2cccc(NC(=O)Nc3c(C)cccc3C)c2)C1,-8%,1.15
CC1(C)Cc2ccccc2CN1C(=O)c1cn(C[C@H]2CCCNC2)nn1,-5%,0.98
COc1ccc(C(=O)Nc2nc3ccccc3n2C2CCCC2)nn1,7%,-0.97
Cc1cc(C)n(CC(=O)N2CCN(Cc3ccccc3)CC[C@@H]2C)n1,-10%,1.12
Cc1ccc(F)c(-n2nc(C(=O)N3CC[C@]4(CNC(=O)C4)C3)c3c2CCC3)c1,-6%,0.68
Cc1cc(F)ccc1[C@H]1C(=O)NCCN1C(=O)c1ccn2ccnc2c1,2%,-0.23
O=C(NCCc1nccn1Cc1ccccc1)c1ccc2c(c1)C(=O)N(Cc1ccccc1)C2=O,2%,-0.33
CC/C(=N\NC(=O)OC(C)(C)C)NC1CCCC1,-14%,1.54
C[C@@]1(C(=O)NCc2ccccc2)Cn2cnc(C(=O)NCCc3ccccc3)c2C(=O)N1C1CC1,-9%,1.49
C[C@]1(/[N+]([O-])=C/c2ccccc2C(F)(F)F)CCCCC1=O,-13%,1.47
O=c1cc[nH]c(CCc2ccccc2)n1,-10%,1.34
COc1ccc(NC(=O)c2c(Nc3ccc(OC(F)F)cc3)sc(C(=O)Nc3ccc4c(c3)OCO4)c2N)cc1Cl,-3%,0.3
N#CC1CCN(C(=O)c2ccccc2Cc2ccc(Cl)cc2)CC1,16%,-2.08
C[C@H](N)c1cc(C(C)(C)C)c(O)c(C(C)(C)C)c1,2%,-0.15
Cc1ccc(C(=O)CN(c2nc3nc(C)cc(C)n3n2)S(=O)(=O)c2ccc(C)cc2)cc1,-4%,0.63
COc1ncccc1CNC[C@H]1Cn2c(-c3ccc(Cl)cc3)cnc2CO1,8%,-0.88
CC1CN(c2ccc(NC(=O)NCC3CC3)cc2)CC(C)O1 (centres undefined),-1%,0.11
Cc1cc(Cl)cc2c1NC(=O)C21NC(CC(N)=O)[C@H]2C(=O)N(Cc3ccc(F)cc3)C(=O)[C@H]21 (some centres undefined),-6%,0.89

SMILES,% Inhibition,Z score
O=C(Nc1cc(F)cc(NCC(F)(F)F)c1)c1cc(C2CC2)no1,7%,-1.18
CCN(CC)c1ccccc1COC(=O)C1CCOCC1,-10%,0.84
Cc1cc(C)c(C(=O)N2CCC[C@H](c3nccn3Cc3ccccc3)C2)cn1,12%,-1.39
Cc1onc(N)c1S(=O)(=O)NCC1(n2cccn2)CC1,-13%,1.66
CN1C(=O)CC[C@@]12CCN(S(=O)(=O)c1ccc(F)cc1)C2,-2%,0.31
CN(CC(=O)NC[C@H]1CCCO1)Cc1cccc(Cl)c1Cl,1%,-0.14
C#CCN(C)S(=O)(=O)c1ccc(OC)cc1,-9%,1.12
CC[C@@H](CN(C)Cc1ccccc1)NC(=O)C1CCN(c2nc3cccnc3n(CC)c2=O)CC1,32%,-2.56
CC(C)c1nnc(CN[C@H](C)c2ccc(F)cc2Cl)o1,-10%,1.29
CN(CCc1ccccn1)[C@H]1CCc2ccccc2C1,-9%,1.19
Cc1cc(C)nc(Cn2cc(-c3ccc(C)c(F)c3F)nn2)n1,-16%,1.9
Cc1cccc(NC(=O)Cn2nc3cnc4ccccc4n3c2=O)c1C,-6%,0.69
CCS(=O)(=O)N(CCN1CCCCC1)C1CN(C(=O)COc2ccc(F)cc2)C1,-3%,0.44
O=C(CN(Cc1ccco1)[C@H]1CCS(=O)(=O)C1)c1c[nH]c(C(=O)N2CCCC2)c1,-2%,0.29
Cc1cnc(C2CC2)n1[C@H]1CCN(S(=O)(=O)c2ccc3c(c2)OCCO3)C1,-4%,0.48
CC(C)c1cc(C(=O)N[C@H]2CCOc3ccccc32)n[nH]1,-12%,1.58
CC(C)[C@H](C)N1Cc2cccc(N)c2C1,0%,0.01
Cc1[nH]c2ccccc2c1CN1CCC(n2nccc2NC(=O)c2ccccc2)CC1,2%,-0.18
O=c1[nH]c2ccc(S(=O)(=O)NCc3ccccc3)cc2c2ccccc12,-4%,0.53
Cn1nc(C(=O)NC2CCCC2)c2c1CCNC2,-14%,1.79
CC[C@H](NC(=O)C1(C)COC1)c1cc(C)ccn1,-16%,1.74

SMILES,% Inhibition,Z score
Cc1cc(=O)n(CC(=O)Nc2ccc(C)c(F)c2)c(N2CCc3ccccc3C2)n1,-19%,1.71
O=C(c1cc(-c2ccc(Cl)s2)nc2ccccc12)N1CCN(c2ncccn2)CC1,-7%,1.02
COc1cc(NC(=O)CCc2ccnn2C)cc(-n2cnnn2)c1,1%,-0.14
Cc1cc(C)n(C(=O)COc2ccc(-c3ccccc3)cc2)n1,-2%,0.31
CCn1nc(CN2CCC(NC(=O)c3ccc(OC)nc3)CC2)c2c1CCOC2,7%,-1.09
C[C@@H](C(=O)N1CCC(c2nc3c(s2)CCC3)CC1)n1cncn1,-13%,1.88
Cc1cc(C)n(-c2ccc(Cn3nc(C(N)=O)ccc3=O)cc2)n1,4%,-0.69
O=C(CCCNC(=O)c1cc(F)c(F)c(F)c1)Nc1cn[nH]c1,-16%,2.31
CCc1cc(C(=O)N[C@@H]2COCC[C@@H]2OCC2CCC2)ccn1,-4%,0.62
CCC1(CC)C(=O)N=C(Nc2cccc(C(F)(F)F)c2)NC1=O,11%,-2.13
CC(C)CS(=O)(=O)N1CC(Oc2ccccc2)C1,-31%,2.73
Cc1ccoc1C(=O)N1CCC(CNC(=O)C2CCCC2)CC1,-3%,0.34
Cc1cc(CNC(=O)C2CC(O)(C3CCCCC3)C2)n(C)n1 (centres undefined),-4%,0.59
CC1(C)Cc2ccc(Cl)c(NC(=O)N[C@H]3CCN(C4CCC4)C3=O)c2O1,0%,0.04
CCn1nc(C)c(-c2cc(-c3c[nH]nc3C(=O)OC)c(C#N)c(N)n2)c1C,-16%,2.39
CN(C)S(=O)(=O)N1CCC[C@H]1c1nn(CCOc2ccccc2)c2c1COCC2,-8%,1.04
COCc1nc2n(n1)[C@@H](c1ccco1)C[C@@H](C)N2,-2%,0.2
Cc1ccc(S(=O)(=O)NC[C@H]2CC3c4ccccc4C2c2ccccc23)cc1,-2%,0.26
Cc1nnc(NCC2CCS(=O)(=O)CC2)c(C#N)c1C,23%,-2.63
